Experimental data reported in the BET-seq Pho4 binding data (Le et al. 2018).
The other results are listed elsewhere or left out. These are noisy estimates, calculated here from bound and input reads.

Biological target: T1, Pho4 (S. cerevisiae) (UniProt P07270)
T1 sequence: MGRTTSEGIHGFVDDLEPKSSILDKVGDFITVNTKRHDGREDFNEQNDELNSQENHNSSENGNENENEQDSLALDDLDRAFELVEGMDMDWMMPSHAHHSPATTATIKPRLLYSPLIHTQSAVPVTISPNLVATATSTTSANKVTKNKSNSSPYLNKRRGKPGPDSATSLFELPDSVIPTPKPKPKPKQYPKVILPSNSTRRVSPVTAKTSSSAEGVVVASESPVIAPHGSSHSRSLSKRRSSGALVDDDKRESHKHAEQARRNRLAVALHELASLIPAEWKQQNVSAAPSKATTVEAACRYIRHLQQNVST
Experiment: relative binding free energy (BET-seq); higher = weaker binding
Settings: reference: library average

| Sequence | relative binding free energy |
| --- | --- |
| TCTTTCACGTGGTTAG | 0.502 kJ/mol |
| GGGGGCACGTGGAAAA | 0.167 kJ/mol |
| GTGAGCACGTGTTTTG | -0.126 kJ/mol |
| TTTGTCACGTGGTCGG | 0.293 kJ/mol |
| GGGCGCACGTGGGCTG | -0.711 kJ/mol |
| TTTCTCACGTGGCATG | 0.544 kJ/mol |
| TCTTGCACGTGGGTCT | -0.335 kJ/mol |
| TTTTGCACGTGGGCCA | -0.753 kJ/mol |
| TTAATCACGTGCTTTG | 0.544 kJ/mol |
| TCACGCACGTGGTTGT | -0.293 kJ/mol |
| TGTTCCACGTGTGTGC | 0.502 kJ/mol |
| CAAGTCACGTGGTAGT | 0.293 kJ/mol |
| ATGGACACGTGTCGTT | 0.628 kJ/mol |
| TAGTTCACGTGGGGTT | 0.418 kJ/mol |
| AGTTTCACGTGGGAAC | 0.92 kJ/mol |
| GAGGACACGTGAAGGT | 1.42 kJ/mol |
| TCGGGCACGTGGGGAG | -1 kJ/mol |
| TTCAGCACGTGGTGTC | -0.377 kJ/mol |
| GGAGACACGTGTGAAT | 0.753 kJ/mol |
| AATTGCACGTGCGTGG | -0.837 kJ/mol |
| CTCGGCACGTGTAAGT | 0.418 kJ/mol |
| ATAATCACGTGTAGGT | 0.418 kJ/mol |
| AGGCGCACGTGGGAAG | -0.126 kJ/mol |
| GAGGGCACGTGGGATA | -0.962 kJ/mol |
| AGGAACACGTGCTGGT | 0.502 kJ/mol |

| Sequence | relative binding free energy |
| --- | --- |
| TTGGTCACGTGGGGTT | 0.0418 kJ/mol |
| TGGAGCACGTGCGTCG | -0.46 kJ/mol |
| GGGGGCACGTGGTTCA | -0.586 kJ/mol |
| CAAATCACGTGGGTGT | 0.377 kJ/mol |
| AGTTACACGTGCATGG | 0.209 kJ/mol |
| TAAAGCACGTGTTTTA | -0.586 kJ/mol |
| ATTATCACGTGTGTTT | 1.26 kJ/mol |
| CTTATCACGTGAATGG | 1.3 kJ/mol |
| TGATGCACGTGGTCGG | -1.21 kJ/mol |
| GGCGCCACGTGGGGTC | -0.46 kJ/mol |
| GGCCTCACGTGTGATT | 1.59 kJ/mol |
| CGTTGCACGTGCGTGG | -0.711 kJ/mol |
| AGATTCACGTGAGAGT | 1.8 kJ/mol |
| TTTATCACGTGCTGAG | 0.418 kJ/mol |
| TTATTCACGTGTATGT | 0.837 kJ/mol |
| TGAGGCACGTGGCGGT | -0.753 kJ/mol |
| GGCGCCACGTGTTGAG | 0.418 kJ/mol |
| TCTTTCACGTGGTGGG | 1.17 kJ/mol |
| ATAATCACGTGGGGAA | -0.126 kJ/mol |
| TTAATCACGTGAGGCG | 0.377 kJ/mol |
| TGGTCCACGTGAGAGG | 1 kJ/mol |
| TGATGCACGTGTTGAT | -0.418 kJ/mol |
| ACTGGCACGTGAGGTG | 0.293 kJ/mol |
| TTGTACACGTGGGGAT | 0.167 kJ/mol |
| GCTGGCACGTGGGTTT | -0.669 kJ/mol |

| Sequence | relative binding free energy |
| --- | --- |
| CAGGGCACGTGTGGTT | -0.0418 kJ/mol |
| CGTAGCACGTGCGTTG | -0.711 kJ/mol |
| AGGGACACGTGATGTG | 0.586 kJ/mol |
| GTGGACACGTGTAAGG | 0.628 kJ/mol |
| AGGATCACGTGGGGAG | 0 kJ/mol |
| GAATACACGTGTTTTG | 0.209 kJ/mol |
| TTATTCACGTGAGAAT | 1.97 kJ/mol |
| AGGGGCACGTGTGGCT | 0 kJ/mol |
| CTTTGCACGTGTTTAG | 0.418 kJ/mol |
| AGGGGCACGTGATGGG | 0.167 kJ/mol |
| GAGTTCACGTGTGGCA | 1 kJ/mol |
| ATCGTCACGTGCGGTT | 0.251 kJ/mol |
| TGGAGCACGTGTTCAG | -0.293 kJ/mol |
| TGGTTCACGTGAGTGG | 1.76 kJ/mol |
| TTTTTCACGTGGCGGA | 1.05 kJ/mol |
| CGTTACACGTGATGTA | 0.377 kJ/mol |
| ATGTGCACGTGTTAAT | -0.0418 kJ/mol |
| TTAAGCACGTGGTGAG | -0.502 kJ/mol |
| AAGTGCACGTGTACTT | 0.335 kJ/mol |
| CTATTCACGTGGGTTG | 0.293 kJ/mol |
| TGTTTCACGTGACTCT | 1.05 kJ/mol |
| GTCTGCACGTGTGTTG | 0.209 kJ/mol |
| GGGGGCACGTGTTCCG | -0.544 kJ/mol |
| TATATCACGTGTTTGC | 0.209 kJ/mol |
| TTGTACACGTGCAGTA | 0.628 kJ/mol |

| Sequence | relative binding free energy |
| --- | --- |
| GTTTTCACGTGACTGA | 2.18 kJ/mol |
| GCTTACACGTGTTAGG | 0.669 kJ/mol |
| TGGGTCACGTGCTATT | 0.335 kJ/mol |
| ATAGGCACGTGATATG | -0.628 kJ/mol |
| TGGTTCACGTGTATGG | 1.3 kJ/mol |
| GTGCTCACGTGGGGCT | 0.502 kJ/mol |
| GTAAGCACGTGTACGG | -0.293 kJ/mol |
| GTGTTCACGTGAATTA | 1.51 kJ/mol |
| TATCTCACGTGGTTTG | 0.879 kJ/mol |
| TGGAACACGTGAATTT | 0.669 kJ/mol |
| CTTATCACGTGAGAGG | 1.05 kJ/mol |
| TAAGTCACGTGTTAGC | 0.293 kJ/mol |
| TTTCACACGTGAGGAG | 1.42 kJ/mol |
| GAGATCACGTGGTGCA | 0.628 kJ/mol |
| TAGGTCACGTGAGATT | 1.38 kJ/mol |
| CGGGGCACGTGTTTGT | -0.879 kJ/mol |
| GGCTTCACGTGTTGTA | 0.879 kJ/mol |
| TGTAGCACGTGTTTTG | -0.0837 kJ/mol |
| AATGCCACGTGGTGTT | -1.3 kJ/mol |
| GGTATCACGTGTGAAG | 0.92 kJ/mol |
| AGGTTCACGTGAGTTG | 1.72 kJ/mol |
| GATAACACGTGTTGAT | 0.92 kJ/mol |
| GATTGCACGTGCAGGG | 0.167 kJ/mol |
| AGAGTCACGTGTATTA | 0.251 kJ/mol |
| ATTTTCACGTGTCAGA | 1.38 kJ/mol |

| Sequence | relative binding free energy |
| --- | --- |
| CTTGGCACGTGGAGAT | -0.586 kJ/mol |
| CGCTGCACGTGAGGGT | 0.711 kJ/mol |
| TGAATCACGTGGGTAT | -0.0418 kJ/mol |
| GGGGACACGTGAGTTG | 0.795 kJ/mol |
| AAAGGCACGTGTAGGT | -0.586 kJ/mol |
| TTTGACACGTGATATT | 0.46 kJ/mol |
| TAGAGCACGTGTCGCG | -0.377 kJ/mol |
| GTTAGCACGTGGTCAA | -0.293 kJ/mol |
| ATAATCACGTGATCGT | 1.17 kJ/mol |
| TCGAGCACGTGGGTTG | -0.837 kJ/mol |
| GCAGGCACGTGTGGAT | -0.0418 kJ/mol |
| TTGTTCACGTGTTACT | 0.837 kJ/mol |
| TCTAACACGTGGGTTG | -0.46 kJ/mol |
| CGTTGCACGTGATAAG | 0.418 kJ/mol |
| TGTTGCACGTGTAACG | 0.167 kJ/mol |
| AATTACACGTGCGTGG | 0.209 kJ/mol |
| CACTGCACGTGTGTGG | 0.293 kJ/mol |
| TTGATCACGTGACGGT | 0.837 kJ/mol |
| AACTTCACGTGTGGAT | 1.17 kJ/mol |
| GTCGTCACGTGGGTCA | 0.209 kJ/mol |
| TTGTGCACGTGCGCGG | -1.09 kJ/mol |
| GAAGGCACGTGGTTTG | -0.795 kJ/mol |
| GGTCGCACGTGGTTTG | -0.502 kJ/mol |
| TTTCACACGTGGGTCG | 0.586 kJ/mol |
| TTAGGCACGTGTTATG | -0.293 kJ/mol |

| Sequence | relative binding free energy |
| --- | --- |
| ACGCTCACGTGGGGGG | -0.335 kJ/mol |
| GTGTGCACGTGCTTGT | -0.377 kJ/mol |
| TGGTGCACGTGATGGA | 0.418 kJ/mol |
| CGGTACACGTGTGGGG | 0.962 kJ/mol |
| GATATCACGTGATGAT | 1.46 kJ/mol |
| TATGTCACGTGAGCAG | 1.46 kJ/mol |
| TGTTACACGTGATTGC | 1.09 kJ/mol |
| ATGTACACGTGTGGAG | 0.962 kJ/mol |
| TGTGCCACGTGTTAGG | -0.0418 kJ/mol |
| GTAGTCACGTGTGCAT | 0.293 kJ/mol |
| TAGAGCACGTGATAGA | 0.126 kJ/mol |
| TGGATCACGTGGTGAT | 0.753 kJ/mol |
| TAGGTCACGTGTGGAG | 0.753 kJ/mol |
| AGTAGCACGTGGTTAG | -0.628 kJ/mol |
| GATGTCACGTGTGGGT | 0.753 kJ/mol |
| AATTTCACGTGAGGTT | 1.51 kJ/mol |
| TAGGTCACGTGAGTTA | 1.42 kJ/mol |
| GGGTTCACGTGTGCAG | 0.879 kJ/mol |
| GATCTCACGTGGTTTT | 1.09 kJ/mol |
| TGAGTCACGTGGCTAG | 0.0837 kJ/mol |
| GTGTTCACGTGGGCAT | 0.46 kJ/mol |
